# Results published in the supplement of paper PMC11417369.
# ± gives the standard deviation of the averaged measurements. This is one part of the list.
# System: PfAP2-I AP2 domain 3 (GST-tagged)
# Test: gcPBM binding intensity (ln(normalized median fluorescence intensity)); higher = stronger DNA binding
# Summary of the method: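 Using an Agilent 4 × 180k array, primer-extended double-stranded 36-bp intergenic genomic probes and negative controls were exposed for 1 h to GST-fused P. falciparum DNA-binding domains expressed in E. coli. Binding was carried out in 1× PBS with 1% milk, 0.2 mg/ml BSA, 0.5% salmon testes DNA and 0.03% Triton X-100, and protein was detected with Alexa488 anti-GST antibody and a 488 nm scan. Binding intensity is the highest Masliner-normalised natural-log median intensity across replicate spots of either probe orientation.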
row,Sequence,gcPBM binding intensity (ln)
1,TATTTAATACGGACTCATAAATCTTAATAAAAAAAA [CACACA_negctrl_site434],7.61 ± 0.25
2,ATTATGTTTCTTTTTTTTTTTAAAGGATGTCTTTTT [CACACA_negctrl_site974],7.59 ± 0.78
3,TTTAAGCAAAAACACACACACATATATATATATATA [CACACA_site349],9.45 ± 0.41
4,TATAAATATATATACACACACATATATATTATATAT [CACACA_site596],7.61 ± 0.37
5,AAAAAATGATAATATACACACTTATGGGAGAGCGCA [CACACA_site5398],7.44 ± 0.61
6,AAAAAAAAAAGACATGCATACGCTAATTTTTAGTTG [TGCATGCA_site300],7.36 ± 0.54
7,ATATATTTTTAAAAAAATTAAGAATTTTACATCTCC [CACACA_negctrl_site1450],7.59 ± 0.65
8,TATTATAATAAGAAGTGTACGTGTTTTTATAAATAA [XGTACX_site575],8.17 ± 0.14
9,TATAAAAAAAACGAAAAAAAAAAAAAAAATACAGGA [TGCATGCA_negctrl_site585],7.85 ± 0.69
10,TTATTTATAAACATATGTACTAATACATGATTAACA [XGTACX_site7645],7.62 ± 0.35
11,GACATATATATAAAATGTACATATATATTTACATAT [XGTACX_site7822],7.75 ± 0.33
12,TGATAATAAGCATACACACACACACTAGAAAAAAAA [CACACA_site4558],8.12 ± 0.63
13,TGTTCTTTATTTTATTGTACTTTTAAAATTCCTTTA [XGTACX_site8058],8.14 ± 0.46
14,AATTAAAAAAAATACACACACACATACCCATATATA [CACACA_site5767],8.02 ± 0.18
15,AATGATATATTATAAACACACAAAGATGAATATATA [CACACA_site2818],7.66 ± 0.56
16,TACCCTCGTATATATATACACACTAAAATACAGACA [CACACA_site4154],7.92 ± 0.61
17,ATTCATTCATATGTTACACACACACCCACCCATAAA [CACACA_site9066],8.75 ± 0.62
18,AATTTATGTTTTAAAAGTACTTTTCTAATTTATAAA [XGTACX_site1593],7.66 ± 0.52
19,CTAAAGTAAATTTAAGCACACACAACGAATTTTTAT [CACACA_site8599],8.32 ± 0.57
20,TATGTACAGACATATACACACCTCTATAATCTATAT [CACACA_site6482],7.92 ± 0.5
21,TGTTTATACAATATTTGTACATATATTTTTATTTTT [XGTACX_site4104],7.8 ± 0.55
22,TTTTAAATAAAAAAATTAAATTAAAATATATAAAAA [XGTACX_negctrl_site490],7.34 ± 0.64

row,Sequence,gcPBM binding intensity (ln)
1,CATTTTTACAACGTTGCACACTTCAAAAGGTTTACA [CACACA_site2760],8.54 ± 0.5
2,GATACTCTCTTTTAATGTACAAAATTTTAAAAATTA [XGTACX_site1781],8.03 ± 0.52
3,TATAAAAAAAAAAAAAGTACTTAAATATAAATAAAT [XGTACX_site5052],7.64 ± 0.31
4,GTTCCATGAGTATATACATGCATATATCTAGTTTAT [TGCATGCA_site388],8.04 ± 0.86
5,ACATTTTTTTTGTGAGTCTTTGCGGCATCAAAATTT [XGTACX_negctrl_site348],7.965 ± 0.049
6,AAAAAAGAAAAAAACTGTACATGATAAATATTTATT [XGTACX_site7270],7.63 ± 0.73
7,TTATGAAGCAGACATGCATGTTATGGCTTAAATAAT [TGCATGCA_site492],7.74 ± 0.86
8,TCCCTTTGTATATATATATAAATATATATATATATA [CACACA_negctrl_site157],8.91 ± 0.57
9,AGATTATATAAAAAAGTGCATATTTTCATTTTTTTT [GTGCAC_site9448],9.07 ± 0.13
10,TTTATCGAATATAATAGTACATAAAAAAAAAAAAAA [XGTACX_site1734],8.02 ± 0.6
11,CATTAAAATGGTAAATGTACATATCCATCTTCTCAC [XGTACX_site4636],7.72 ± 0.44
12,AGTATAAAAATAAGCACACACACAAATATATATTTA [CACACA_site923],8.21 ± 0.37
13,ATAATATAAATATTAACACACATCCTTTTATGTATA [CACACA_site6685],7.67 ± 0.63
14,TTTCTTCTGCATTATGCACACTATAATTCGTTAAAA [CACACA_site5568],10.7 ± 0.36
15,TTTTCTTTTACAAAGGGTACATAATTTAAATTCATA [XGTACX_site3876],7.74 ± 0.4
16,TATATGCACTTAATATGTACACAAAAAAAAAAAAAA [XGTACX_site6199],9.87 ± 0.8
17,CTTATATTAAAAACTTGTACACATGTTAAGAATTTT [XGTACX_site5857],7.57 ± 0.33
18,TTTATATATTATACATGTACATATTTATTTATATAA [XGTACX_site3474],7.86 ± 0.46
19,AAATAAGCATATACAAACATGCATACATATAAATAA [CACACA_negctrl_site246],7.64 ± 0.59
20,AAAAAAAAAAAATCATGTACTTATTTTTCATTGTTG [XGTACX_site1542],7.53 ± 0.17
21,ATACATATATATATTCTACACACTTATAATATAATA [CACACA_site8782],8.06 ± 0.49
22,GTAAAAGTTAAAAAAACATGCAAAATTTAAAAAAAA [TGCATGCA_site637],7.91 ± 0.94

row,Sequence,gcPBM binding intensity (ln)
1,ACTATATTTGCCCTTTTAATCAGAACAAAAAAAAAA [CACACA_negctrl_site1051],8.74 ± 0.13
2,ATTATATTCCAAGTTTGTACATATATATAAAAGTAT [XGTACX_site1631],7.98 ± 0.48
3,TTCTTTTCAGAAGGAAAGAATTATAACATATCATAA [XGTACX_negctrl_site548],7.47 ± 0.3
4,ATATTATGTGAAGAACGTACAAATTTTTACACTATA [XGTACX_site1485],7.86 ± 0.63
5,TATTTTGCTCATCCATGTACACATAGATATATTTTA [XGTACX_site8244],8.09 ± 0.51
6,CTATAAATAACAGAAAGTACATATACATGGATATAT [XGTACX_site3317],7.75 ± 0.72
7,TAAAAGAAATAAGGTGCACACATATACATATATATA [CACACA_site8037],10.19 ± 0.071
8,TTTCTAAATGTTTATATATATATATATATATAAATA [GTGCAC_negctrl_site397],7.98 ± 0.35
9,AATATATCAAAAATTGGATAGTTTCTTATAAAAAAT [CACACA_negctrl_site39],7.45 ± 0.58
10,ATATATTTTAAAGAAAGTACCCACCGTTTGAAGTCA [XGTACX_site2273],8.3 ± 0.38
11,ATTAATATATAACGTGCACACACACCGTTACGTATG [CACACA_site8543],10.3 ± 0.35
12,TGTTATATATATTGACTTAATAAATAAATAAATATA [GTGCAC_negctrl_site590],7.25 ± 0.26
13,TCTTATTTTATAAATATAAATATATATATATATATA [GTGCAC_negctrl_site479],9.25 ± 0.37
14,TATTTTATAATTTACCGTACATTAATTGTATTATTA [XGTACX_site5722],8.03 ± 0.49
15,ATATATTTTATATGTGTGCACTATATATATATATAT,11.4 ± 0.3
16,TTACAAAACACTTATACACACATATAAATATAAATA [CACACA_site7307],7.95 ± 0.17
17,CTCCTCATATAATTTTGTACATAAAAAATTACCATT [XGTACX_site3879],7.93 ± 0.54
18,TATAAACATAAATATACACACAAACATATAGGTATT [CACACA_site6690],7.71 ± 0.59
19,AAAAAAAAAAAAAAAAAAAAAAATATATATATATTT [GTGCAC_negctrl_site502],9.625 ± 0.064
20,ATTAATCAATATAGGCGTACAAAAAAAATAAATTAT [XGTACX_site1513],8.16 ± 0.54
21,CCCCTTAATTTATTTTGTACATATAATTTTTTTTTT [XGTACX_site3270],7.85 ± 0.34
22,CTTGTATATAAACACACACACACTTTCTTTTTTTAA [CACACA_site8602],7.83 ± 0.57

row,Sequence,gcPBM binding intensity (ln)
1,ACAAAAATAAGCAAATGTACATATGTATAATATATT [XGTACX_site2492],7.77 ± 0.58
2,GTATTTTTAAATGACACACACATATATAAATATGTA [CACACA_site6880],7.83 ± 0.39
3,CTGGAGTTAAAAATGTGTACCTAAAAAATTTTGTTC [XGTACX_site5554],7.87 ± 0.47
4,ATTATTATATATAAAACACACAATTTTGTTTTCACA [CACACA_site3965],7.74 ± 0.5
5,ATATAATAATATTAAAGTACATGCATATATATTTAT [XGTACX_site7422],7.71 ± 0.54
6,ACTATTTAAATGCAAAGTACTTTGATAATAAACAAT [XGTACX_site2608],7.99 ± 0.5
7,TAATATAACAAAAAAATAAAATAAAATAAAAAATAA [CACACA_negctrl_site109],7.49 ± 0.55
8,ATTTTTTAAAAAAACATACACACAAAAAAAAAAAAA [CACACA_site3936],7.99 ± 0.69
9,CATAATATCTCTTTGTGTACATATAGTTATTATTAT [XGTACX_site7688],7.88 ± 0.52
10,TGAAATGATATATAAACACACATATATATATATATA [CACACA_site3511],9.38 ± 0.72
11,ATTTTTAATGTGATCACACATAAATATTATATATAT [CACACA_site5641],8 ± 0.58
12,GTATAAAAAAATATATGTACTTATTTACATATATAT [XGTACX_site4744],7.79 ± 0.43
13,ATATTATAATTGAAGGTGCAAAATGTAATATAGATA [GTGCAC_site9661],10.9 ± 0.49
14,ATTCATTTTTTGGGGGGTACACCCTTTTAAACATTT [XGTACX_site4797],10.1 ± 0.22
15,ATTATTATTTAAAAAAGTACATTGAAGTTCATAATA [XGTACX_site3575],7.8 ± 0.42
16,CCCCCCCACAGACACACACACATACATACCACATAT [CACACA_site2306],10.3 ± 0.22
17,TTAAAGCTGACATATACACACATACATAAATTCATA [CACACA_site5377],7.75 ± 0.42
18,TATACATATATTATATGTACATATATATATAATATA [XGTACX_site2942],7.755 ± 0.007
19,ATATATATATAATAAACACACAAATAGATATAACAT [CACACA_site3715],8.99 ± 0.014
20,GGACAAGTTTTTTACATAAATAAAAAAAATAAAAAA [XGTACX_negctrl_site125],7.67 ± 0.61
21,AAAAAAAATACATACACACACACACCCACATATATA [CACACA_site3561],8.03 ± 0.16
22,AATATAAAAAAAGAGGAGGGATGGTATACTTGTGGT [CACACA_negctrl_site986],7.94 ± 0.78
